# Test results from PubChem BioAssay AID445 (National Center for Advancing Translational Sciences (NCATS), 2006).
# Among all 110,000 compounds or so, about 40 (0.04%) were called active. This list was built around the results that the source calls inconclusive (neither active nor inactive); the mix of calls is not that of the screen. The call rests on the fitted dose curve; in most records, active means well fitted curve in the direction sought with a large enough effect in the signal ratio (not every such curve was filed as active); inconclusive means small, poorly fitted or top-dose-only effect, or a change in a side signal; inactive means flat fitted curve, though single readings scatter; the % refers to the signal ratio. Potencies of inconclusive entries are doubtful fits and often do not repeat.
# Assay: IkB Signaling;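 on IkBa stabilization activation: 0% = basal untreated cells and 100% = reference inhibitor full response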
# Conditions: ABC-DLBCL IkBa-CBG/CBR dual luciferase ratio (green luciferase fused to IkBa over red control in OCI-Ly3 lymphoma cells), 4 h; IkBa stabilization activation: at 57.1 µM (top of the series), scaled: untreated 0%, proteasome inhibitor 100% unless noted
# Outline: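 Curves were fitted separately to fusion (green), unfused (red) and ratio luminescence, then classed by r2, magnitude and activity. Cells: OCI-Ly3, 4 h compound plus doxycycline at 37C; 10 uM MG-132 defined full response.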
# Potency means the concentration at half of the fitted maximal effect.
Structure (SMILES),IkBa stabilization activation,Potency
CCCOc1ccc(C(=O)NCC(c2ccc(OC)cc2)N2CCCCC2)cc1 (stereo unspecified),inconclusive: 0.279% [signal inhibitor],
CC(C)c1ccc(-c2noc(SCC(=O)N3CCN(c4ccccc4F)CC3)n2)cc1,inactive: -4.11%,
COc1ccc(Cn2ccn(CC(=O)Nc3cc(C)ccc3C)c(=O)c2=O)cc1,inconclusive: 1.76% [signal inhibitor],
C=CCn1c(N)c(C(=O)NCC2CCCO2)c2nc3ccccc3nc21 (stereo unspecified),inconclusive: -0.696% [signal inhibitor],
Cc1ccc(NC(=O)Cn2c(=O)ccc3cc(S(=O)(=O)N4CCCC4)ccc32)cc1C,inconclusive: -1.62% [signal inhibitor],
COc1ccccc1CNc1ccnc(-c2ccc(C(=O)N(C)C)cc2)n1,"inactive: 2.82% [at 11.4 µM, scaled: untreated 0%, proteasome inhibitor 100%]",
C=CCN1C(=O)/C(=C2/Sc3ccccc3N2C)SC1=Nc1c(C)n[nH]c1C,inactive: -0.778%,
O=C(Nc1nc2cc3c(cc2s1)OCCO3)c1cccc(S(=O)(=O)N2CCOCC2)c1,inconclusive: 1.07% [signal inhibitor],
COc1cc(CN(C(=O)c2ccccc2)c2ccccn2)cc(OC)c1OC,inconclusive: 0.952% [signal inhibitor],
COc1ccc2c(c1)c(=O)c(C(=O)c1ccc(F)cc1)cn2CC(=O)Nc1ccc2c(c1)OCCO2,,"inconclusive: 39.8 µM [signal activator, single point]"
O=C(CC(c1ccccc1)c1cc(Br)ccc1O)NCCN1CCOCC1 (stereo unspecified),inactive: 3.77%,
COc1ccc(C(c2nnnn2Cc2ccccc2)N2CCN(c3ccccc3)CC2)cc1 (stereo unspecified),inactive: 0.35%,
COc1ccccc1N(CCC#N)C(=O)CSc1nc(-c2ccccc2)cn1N,inconclusive: 8.06% [signal inhibitor],
O=C1CC(N(O)c2ccccc2)C(=O)N1c1cc(Cl)cc(Cl)c1 (stereo unspecified),inconclusive: 8.21% [signal inhibitor],
CCOC(=O)CSc1nnc(-c2ccc(OC)cc2)o1,inconclusive: 4.37% [signal inhibitor],
CCCOc1ccc(C(=O)N(Cc2ccc(Cl)cc2)Cc2ccco2)cc1,inconclusive: -1.85% [signal inhibitor],
O=c1[nH]c(CSc2nnc(-c3ccncc3)n2Cc2ccco2)nc2ccccc12,inactive: 0.757%,
Cc1ccc(CNC(=O)c2ccc3c(c2)NC(=O)C(CS(=O)(=O)Cc2cccc(C)c2)N3)cc1 (stereo unspecified),inconclusive: 2.57% [signal inhibitor],
CCOC(=O)Nc1nc(-c2ccccc2)c(C)s1,"inactive: 0.212% [at 11.4 µM, scaled: untreated 0%, proteasome inhibitor 100%]",
Cc1ccc(Cl)cc1NC(=O)Cn1nnc2sc3c(c2c1=O)CCC(C(C)(C)C)C3 (stereo unspecified),inactive: -0.324%,
COc1ccc(CCNC(=O)c2cc(-c3ccccc3O)n[nH]2)cc1OC,inconclusive: 7.55% [signal inhibitor],
Cc1cccc(N(C)S(=O)(=O)c2nnc(NC(=O)C(C)(C)C)s2)c1,inconclusive: -1.37% [signal inhibitor],
O=C(c1ccc2c(c1)N(Cc1ccccc1F)C(=O)c1ccccc1S2=O)N1CCC(Cc2ccccc2)CC1 (stereo unspecified),inconclusive: -1.15% [signal inhibitor],
COc1ccc(NC(=O)C2CCCN(S(=O)(=O)c3cccc4cccnc34)C2)cc1 (stereo unspecified),inconclusive: 6.98% [signal inhibitor],

Structure (SMILES),IkBa stabilization activation,Potency
CCOC(=O)c1cc(-c2ccc(F)cc2)n(CCC(=O)Nc2nc3cc(C)c(C)cc3s2)c1C,inconclusive: 5.33% [signal inhibitor],
CCOc1ccc(-n2c(-c3ccc(Br)cc3)cc3c2CC(C)(C)CC3=O)cc1,inconclusive: -0.631% [signal inhibitor],
COc1ccc(OCc2ccc(-c3nc(C#N)c(NCc4ccc(F)cc4)o3)o2)cc1,inconclusive: 0.703% [signal inhibitor],
O=C(CN1CCN(c2nc(-c3ccc(F)cc3)cs2)CC1)NCc1ccc2c(c1)OCO2,inconclusive: 4.97% [signal inhibitor],
OCCN1CCN(c2ncnc3c2cnn3-c2cccc(Cl)c2)CC1,inconclusive: 0.237% [signal inhibitor],
O=[N+]([O-])c1cccc(I)c1,inactive: -1.69%,
Cc1ccc(CNC(=O)C2CCCN(c3nc4ccccc4n4cccc34)C2)cc1 (stereo unspecified),inconclusive: 1.63% [signal inhibitor],
COc1ccc(C(C)NC(=O)CN(c2cc(OC)ccc2OC)S(=O)(=O)c2ccccc2)cc1 (stereo unspecified),inconclusive: -0.00622% [signal inhibitor],
Brc1cccc(-c2nn(-c3ccccc3)c3c2cnc2cc4c(cc23)OCO4)c1,inconclusive: 7.01% [signal inhibitor],
O=C(c1cccs1)N1CCCc2cc(NS(=O)(=O)c3ccc(Br)cc3)ccc21,inconclusive: 8.23% [signal inhibitor],
COc1ccc(-n2c(CC3C(=O)Nc4ccc(C)cc43)nc3ccccc3c2=O)cc1 (stereo unspecified),inconclusive: 1.71% [signal inhibitor],
O=C(NCc1ccccc1Cl)c1ccc2c(c1)ncn2-c1cccc(F)c1,inconclusive: -1.48% [signal inhibitor],
O=C(COC(=O)c1ccccc1)NCc1ccco1,inactive: 0.0561%,
CCc1ccc(C2c3c(-c4cc(C)ccc4O)n[nH]c3C(=O)N2CCO)cc1 (stereo unspecified),inconclusive: -0.227% [signal inhibitor],
Cn1c(SCC(=O)N2CCOCC2)ncc(C(=O)Nc2ccc(F)cc2)c1=O,inconclusive: 18.9%,
N#Cc1nc(-c2cccc3ccccc23)oc1N1CCCCC1,inactive: 0.393%,
CCOC(=O)c1c(S(=O)(=O)NCC(=O)Nc2cccc(SC)c2)c(C)n(C)c1C,inactive: -2.59%,
c1ccc([C@H](CCN2CCCC2)c2ccccn2)cc1,"inactive: 0.183% [at 11.4 µM, scaled: untreated 0%, proteasome inhibitor 100%]",
COc1ccc(NC(=O)CCCS(=O)(=O)c2nc(-c3ccccc3OC)cc(C(F)(F)F)n2)c(OC)c1,inconclusive: -5.53% [signal inhibitor],
Cn1c(C(=O)NCc2ccccc2Cl)cc2sc(Cl)cc21,inconclusive: 0.662% [signal inhibitor],
COc1cccc(CNC(=O)CN(c2cc(C)cc(C)c2)S(=O)(=O)c2c(C)noc2C)c1,inconclusive: 1.56% [signal inhibitor],
COc1ccc(-c2csc3ncnc(Nc4ccc(OC)cc4OC)c23)cc1,inconclusive: -1.99% [signal inhibitor],
CCc1cccc(NC(=O)Cn2c(=O)n(CC3CCC(C(=O)NC)CC3)c(=O)c3sccc32)c1 (stereo unspecified),inconclusive: 0.686% [signal inhibitor],
Cc1noc(COc2ccc(OCc3nc(C)no3)cc2)n1,inactive: 0.358%,

Structure (SMILES),IkBa stabilization activation,Potency
COc1cccc(CNC(=O)CN(c2ccc(C)cc2)S(=O)(=O)N(C)C)c1OC,inconclusive: -0.704% [signal inhibitor],
CC(C)NC(=O)NC(=O)COc1ncnc2sccc12,inactive: -1.23%,
O=C(Cc1cccs1)Nc1ccccc1C(=O)O,inconclusive: 5.97% [signal inhibitor],
COc1cccc(CNC(=O)Cn2c(=O)cc(C)c3c(C)nn(C)c32)c1OC,inconclusive: 5.35% [signal inhibitor],
COc1cc(NS(=O)(=O)c2cc(Br)cc3c2N(C(C)=O)C(C)C3)cc(OC)c1 (stereo unspecified),inactive: -2.3%,
O=C(NC1CCCCC1)c1ccc2c(c1)N(Cc1ccc(F)cc1)C(=O)c1ccccc1S2(=O)=O,inconclusive: 0.521% [signal inhibitor],
N#CC1=C(N)N(c2ccc(Cl)cc2)C2=C(C(=O)CCC2)C1c1cc(CN2CCOCC2)cs1 (stereo unspecified),,"inconclusive: 20 µM [signal inhibitor, partial curve]"
Cc1cccc(N(C)C(=O)C2CCC(CNS(=O)(=O)c3cccc4nsnc34)CC2)c1 (stereo unspecified),inconclusive: 0.397% [signal inhibitor],
CCCCCCc1nnc(NC(=O)OCC)s1,inactive: -4.49%,
c1ccc2[nH]c(CN3CCCCCC3)nc2c1,,"inconclusive: 39.8 µM [signal inhibitor, single point]"
CCCSC1=NC2(CCN(C(=O)NC3CCCCC3)CC2)N=C1c1ccc(OC)cc1,inactive: -1.86%,
Cc1ccc(OCC2Cn3c(nc4c3c(=O)n(C)c(=O)n4C)O2)cc1 (stereo unspecified),inactive: -0.594%,
O=c1c2c3c(sc2nnn1CCCCOc1ccc(Cl)cc1)CCCC3,inconclusive: -0.032% [signal inhibitor],
Cc1occc1-c1nc(-c2ccccn2)no1,inactive: 6.18%,
Cc1ccccc1CNc1nc(N)n(-c2ccccc2)n1,,"inconclusive: 20 µM [signal inhibitor, partial curve]"
O=C(c1cc(-c2ccco2)on1)N1CCc2ccccc2C1,inactive: 3.82%,
CCOc1ccccc1-n1c(N)c(C(=O)OC)c2nc3ccccc3nc21,inactive: 5.68%,
COC(=O)c1ccc(CSc2nc3ccccc3c(=O)n2Cc2ccco2)o1,inconclusive: 4.71% [signal inhibitor],
N#C/C(=C/c1ccc(O)cc1)c1nc(-c2ccc(-c3ccccc3)cc2)cs1,inconclusive: 0.553% [signal inhibitor],
Cc1nc(-c2cccc(F)c2)sc1CCNC(=O)Cc1ccc(F)cc1,inactive: -0.672%,
O=C(CCCc1nc(-c2ccc(Cl)cc2)no1)NCc1ccco1,inconclusive: -1.64% [signal inhibitor],
CC1(C)CC(CCNC(=O)c2ccc(-n3cnnn3)cc2)CC(C)(C)N1,inactive: -1.77%,
CCN(CC)c1cc(NC2CCCCC2)c2c3c(onc13)-c1ccccc1C2=O,inconclusive: -0.486% [signal inhibitor],
